# From US11161864B2, “Sting agonists” (Venenum Biodesign, LLC, priority 2018, dated 2021)
# Columns and labels:
# [1] = biological target: wildtype (WT) STING protein, THP1 Dual (WT) human cells (Homo sapiens (Human), UniProt Q86WV6, H232R); assay: cell-based; settings: for Emax: THP1-Dual, 5 h, read-out: Human WT Agonist Efficacy, 5 hrs; for EC50: Human WT Agonist EC50, 5 hrs
# [2] = test system: STING pathway, RAW-Dual Reporter cell line; assay: cells; settings: for Emax: read-out: Murine Agonist Efficacy, 5 hrs
# [3] = biological target: HAQ STING protein, THP1 Dual (HAQ) human cells (Homo sapiens (Human), UniProt Q86WV6, G230A/H232R/R293Q/R71H); assay: cell-based; settings: for Emax: THP1-Dual, 5 h, read-out: Human HAQ Agonist Efficacy, 5 hrs; for EC50: Human HAQ Agonist EC50, 5 hrs
# Sequence of HAQ STING protein, THP1 Dual (HAQ) human cells (Q86WV6 whole entry R71H/G230A/H232R/R293Q): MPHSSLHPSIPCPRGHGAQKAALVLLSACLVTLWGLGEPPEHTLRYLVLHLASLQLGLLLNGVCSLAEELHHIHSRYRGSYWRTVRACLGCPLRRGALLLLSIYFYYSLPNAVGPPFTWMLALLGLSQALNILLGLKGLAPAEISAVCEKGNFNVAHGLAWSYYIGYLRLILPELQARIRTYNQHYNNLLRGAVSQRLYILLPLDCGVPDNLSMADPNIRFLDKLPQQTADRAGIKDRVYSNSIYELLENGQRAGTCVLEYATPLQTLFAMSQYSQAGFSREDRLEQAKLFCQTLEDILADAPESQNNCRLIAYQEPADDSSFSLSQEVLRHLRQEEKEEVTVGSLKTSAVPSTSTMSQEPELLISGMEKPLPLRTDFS
# [4] = Mus musculus, 5 h, read-out: Murine Agonist EC50, 5 hrs
# Sequence of wildtype (WT) STING protein, THP1 Dual (WT) human cells (Q86WV6 whole entry H232R): as the sequence (Q86WV6 whole entry R71H/G230A/H232R/R293Q) above, with H71R, A230G, Q293R counted along it
Emax [1],Emax [3],"EC50 [2, 4]","EC50 ([2]; read-out: Murine Agonist EC50, 5 hrs)",SMILES,"Emax ([2]; Mus musculus, 5 h)",EC50 [1],EC50 [3]
< 100%,> 100%,,,"C[C@H]1COP(=O)(S)OC[C@H]2O[C@@H](n3cnc4c(=O)[nH]c(N)nc43)[C@H](OP(=O)(S)OCc3nc4cncnc4n31)[C@@H]2F (stereo partly drawn) [Example 20D, (1S,15S,21R,23R,24R)-23-(2-Amino-6-oxo-6,9-dihydro-1H-purin-9-yl)-24-fluoro-15-methyl-3,18-disulfanyl-2,4,17,19,22-pentaoxa-7,10,12,14-tetraaza-3lambda5,18lambda5-diphosphatetracyclo[19.2.1.06,14.08,13]tetracosa-6,8,10,12-tetraene-3,18-dione]",< 100%,,
< 100%,> 100%,,,"Nc1nc2c(ncn2[C@@H]2O[C@@H]3COP(=O)(S)OCCn4nc(-c5cncs5)nc4COP(=O)(S)O[C@@H]2[C@@H]3F)c(=O)[nH]1 (stereo partly drawn) [Example 16A, (1S,17R,19R,20R)-19-(2-Amino-6-oxo-6,9-dihydro-1H-purin-9-yl)-20-fluoro-3,14-disulfanyl-8-(1,3-thiazol-5-yl)-2,4,13,15,18-pentaoxa-7,9,10-triaza-3lambda5,14lambda5-diphosphatricyclo[15.2.1.06,10]icosa-6,8-diene-3,14-dione]",> 100%,,
< 100%,< 100%,< 10 µM,,"Nc1nc2c(ncn2[C@@H]2O[C@@H]3COP(=O)(S)OCCn4c(nc5c(=O)[nH]cnc54)COP(=O)(S)O[C@@H]2[C@@H]3F)c(=O)[nH]1 (single isomer, unassigned) [Example 3B]",> 100%,,
< 100%,> 100%,,,"Nc1nc2c(ncn2[C@@H]2O[C@@H]3COP(=O)(S)OCCn4c(nc5cncnc54)COP(=O)(S)O[C@@H]2[C@@H]3O)c(=O)[nH]1 (stereo partly drawn) [Example 15A, (1R,21R,23R,24R)-23-(2-Amino-6-oxo-6,9-dihydro-1H-purin-9-yl)-24-hydroxy-3,18-disulfanyl-2,4,17,19,22-pentaoxa-7,10,12,14-tetraaza-3lambda5,18lambda5-diphosphatetracyclo[19.2.1.06,14.08,13]tetracosa-6,8,10,12-tetraene-3,18-dione]",> 100%,,
< 100%,> 100%,,,"Nc1nc2c(ncn2[C@@H]2O[C@@H]3COP(=O)(S)OCCn4c(nc5cc(Cl)cnc54)COP(=O)(S)O[C@@H]2[C@@H]3F)c(=O)[nH]1 (stereo partly drawn) [Example 14A, (1S,21R,23R,24R)-23-(2-Amino-6-oxo-6,9-dihydro-1H-purin-9-yl)-10-chloro-24-fluoro-3,18-disulfanyl-2,4,17,19,22-pentaoxa-7,12,14-triaza-3lambda5,18lambda5-diphosphatetracyclo[19.2.1.06,14.08,13]tetracosa-6,8,10,12-tetraene-3,18-dione]",> 100%,,
< 100%,> 100%,,,"Nc1nc2c(ncn2[C@@H]2O[C@@H]3COP(=O)(S)OCCn4c(nc5cnccc54)COP(=O)(S)O[C@@H]2[C@@H]3F)c(=O)[nH]1 (stereo partly drawn) [Example 17C, (1S,21R,23R,24R)-23-(2-Amino-6-oxo-6,9-dihydro-1H-purin-9-yl)-24-fluoro-3,18-disulfanyl-2,4,17,19,22-pentaoxa-7,10,14-triaza-3lambda5,18lambda5-diphosphatetracyclo[19.2.1.06,14.08,13]tetracosa-6,8,10,12-tetraene-3,18-dione]",< 100%,,
,,10 to 99.9 µM,,"C[C@H]1COP(=O)(S)OC[C@H]2O[C@@H](n3cnc4c(=O)[nH]c(N)nc43)[C@H](OP(=O)(S)OCc3nc4cncnc4n31)[C@@H]2F (single isomer, unassigned) [Example 20D]",,100 to 999 µM,10 to 99.9 µM
< 100%,> 100%,,,"Nc1nc2c(ncn2[C@@H]2O[C@@H]3COP(=O)(S)OCCn4c(nc5cncnc54)COP(=O)(S)O[C@@H]2C3)c(=O)[nH]1 (stereo partly drawn) [Example 22A, (1R,21S,23R)-23-(2-Amino-6-oxo-6,9-dihydro-1H-purin-9-yl)-3,18-disulfanyl-2,4,17,19,22-pentaoxa-7,10,12,14-tetraaza-3lambda5,18lambda5-diphosphatetracyclo[19.2.1.06,14.08,13]tetracosa-6,8,10,12-tetraene-3,18-dione]",> 100%,,
< 100%,< 100%,,,"Nc1nc2c(nnn2[C@@H]2O[C@@H]3COP(=O)(S)OCCn4c(nc5cncnc54)COP(=O)(S)O[C@@H]2[C@@H]3F)c(=O)[nH]1 (stereo partly drawn) [Example 24A, (1S,21R,23R,24R)-23-{5-Amino-7-oxo-3H,6H,7H-[1,2,3]triazolo[4,5-d]pyrimidin-3-yl}-24-fluoro-3,18-disulfanyl-2,4,17,19,22-pentaoxa-7,10,12,14-tetraaza-3lambda5,18lambda5-diphosphatetracyclo[19.2.1.06,14.08,13]tetracosa-6,8,10,12-tetraene-3,18-dione]",< 100%,,
< 100%,< 100%,,10 to 99.9 µM,"Nc1nc2c(nnn2[C@@H]2O[C@@H]3COP(=O)(S)OCCn4c(nc5cncnc54)COP(=O)(S)O[C@@H]2[C@@H]3F)c(=O)[nH]1 (single isomer, unassigned) [Example 24B]",< 100%,,
< 100%,< 100%,,,"Nc1nc2c(ncn2[C@@H]2O[C@@H]3COP(=O)(S)OCCn4c(nc5cncnc54)COP(=O)(O)O[C@@H]2[C@@H]3F)c(=O)[nH]1 (stereo partly drawn) [Example 6A, (1S,21R,23R,24R)-23-(2-Amino-6-oxo-6,9-dihydro-1H-purin-9-yl)-24-fluoro-3-hydroxy-18-sulfanyl-2,4,17,19,22-pentaoxa-7,10,12,14-tetraaza-3lambda5,18lambda5-diphosphatetracyclo[19.2.1.06,14.08,13]tetracosa-6,8(13),9,11-tetraene-3,18-dione]",> 100%,,
< 100%,< 100%,,,"Nc1nc2c(ncn2[C@@H]2O[C@@H]3COP(=O)(S)OCCn4c(nc5cncnc54)COP(=O)(S)O[C@@H]2[C@H]3F)c(=O)[nH]1 (stereo partly drawn) [Example 25B, (1S,21R,23R,24S)-23-(2-Amino-6-oxo-6,9-dihydro-1H-purin-9-yl)-24-fluoro-3,18-disulfanyl-2,4,17,19,22-pentaoxa-7,10,12,14-tetraaza-3lambda5,18lambda5-diphosphatetracyclo[19.2.1.06,14.08,13]tetracosa-6,8,10,12-tetraene-3,18-dione]",< 100%,,

SMILES,Emax [1],Emax [3],"EC50 [2, 4]","EC50 ([2]; read-out: Murine Agonist EC50, 5 hrs)","Emax ([2]; Mus musculus, 5 h)",EC50 [1],EC50 [3]
"CO[C@H]1[C@H]2OP(=O)(S)OCc3nc4cncnc4n3CCOP(=O)(S)OC[C@H]1O[C@H]2n1cnc2c(=O)[nH]c(N)nc21 (stereo partly drawn) [Example 27B, (1R,21R,23R,24R)-23-(2-Amino-6-oxo-6,9-dihydro-1H-purin-9-yl)-24-methoxy-3,18-disulfanyl-2,4,17,19,22-pentaoxa-7,10,12,14-tetraaza-3lambda5,18lambda5-diphosphatetracyclo[19.2.1.06,14.08,13]tetracosa-6,8,10,12-tetraene-3,18-dione]",< 100%,< 100%,,,< 100%,,
"Nc1nc2c(ncn2[C@@H]2O[C@@H]3COP(=O)(S)OCCCn4c(nc5cncnc54)COP(=O)(S)O[C@@H]2[C@@H]3O)c(=O)[nH]1 (stereo partly drawn) [Example 9, (1R,22R,24R,25R)-24-(2-Amino-6-oxo-6,9-dihydro-1H-purin-9-yl)-25-hydroxy-3,19-disulfanyl-2,4,18,20,23-pentaoxa-7,10,12,14-tetraaza-3lambda5,19lambda5-diphosphatetracyclo[20.2.1.06,14.08,13]pentacosa-6,8,10,12-tetraene-3,19-dione]",< 100%,> 100%,10 to 99.9 µM,,< 100%,100 to 999 µM,10 to 99.9 µM

# Where two headings read alike, the source gives them in different places.
